# Assay results from publication PMC9911399, “Two distinct binding modes provide the RNA-binding protein RbFox with extraordinary sequence specificity”.
# Numbering of substitutions follows the chain as printed; changes in the protein carry UniProt numbers. This is one part of the list.
# T1: RBFOX1 RRM RbFoxmut (Fox-RRM*) (Homo sapiens, UniProt Q9NWB1 109-208, R118D;E147R;N151S;E152T)
# T1 sequence: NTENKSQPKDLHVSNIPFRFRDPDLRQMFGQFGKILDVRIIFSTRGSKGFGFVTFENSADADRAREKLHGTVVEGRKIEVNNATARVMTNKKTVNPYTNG
# B1: CGAUUAG (DNA:RNA)
# RNA: GGGAGACCGGAAUUCAGAUUGUCCCGAUUAGUUAAAUCCCGUCGUAGCCACCA
# DNA 1: CAATCTGAATTCCGGTCTCCC
# DNA 2: TGGTGGCTACGACGGGATT
# B2: ACGAUUG (DNA:RNA)
# RNA: B1 RNA with C25A, G26C, A27G, U28A, A30U
# DNA 1: CAATCTGAATTCCGGTCTCCC
# DNA 2: TGGTGGCTACGACGGGATT
# B3: AAUGAUC (DNA:RNA)
# RNA: GGGAGACCGGAAUUCAGAUUGUCCAAUGAUCUUAAAUCCCGUCGUAGCCACCA
# DNA 1: CAATCTGAATTCCGGTCTCCC
# DNA 2: TGGTGGCTACGACGGGATT
# B4: CCCUCUU (DNA:RNA)
# RNA: B1 RNA with G26C, A27C, U29C, A30U, G31U
# DNA 1: CAATCTGAATTCCGGTCTCCC
# DNA 2: TGGTGGCTACGACGGGATT
# B5: GUACAUG (DNA:RNA)
# RNA: B3 RNA with A25G, A26U, U27A, G28C, C31G
# DNA 1: CAATCTGAATTCCGGTCTCCC
# DNA 2: TGGTGGCTACGACGGGATT
# B6: GAUUUAA (DNA:RNA)
# RNA: B1 RNA with C25G, G26A, A27U, G31A
# DNA 1: CAATCTGAATTCCGGTCTCCC
# DNA 2: TGGTGGCTACGACGGGATT
# B7: UAAGUCA (DNA:RNA)
# RNA: B3 RNA with A25U, U27A, A29U, U30C, C31A
# DNA 1: CAATCTGAATTCCGGTCTCCC
# DNA 2: TGGTGGCTACGACGGGATT
# B8: GUGUAAA (DNA:RNA)
# RNA: B1 RNA with C25G, G26U, A27G, U29A, G31A
# DNA 1: CAATCTGAATTCCGGTCTCCC
# DNA 2: TGGTGGCTACGACGGGATT
# B9: UCGGGAG (DNA:RNA)
# RNA: B1 RNA with C25U, G26C, A27G, U28G, U29G
# DNA 1: CAATCTGAATTCCGGTCTCCC
# DNA 2: TGGTGGCTACGACGGGATT
# B10: GUAUCUC (DNA:RNA)
# RNA: B3 RNA with A25G, A26U, U27A, G28U, A29C
# DNA 1: CAATCTGAATTCCGGTCTCCC
# DNA 2: TGGTGGCTACGACGGGATT
# B11: AUUCAUA (DNA:RNA)
# RNA: B3 RNA with A26U, G28C, C31A
# DNA 1: CAATCTGAATTCCGGTCTCCC
# DNA 2: TGGTGGCTACGACGGGATT
# B12: UAAAGAC (DNA:RNA)
# RNA: B3 RNA with A25U, U27A, G28A, A29G, U30A
# DNA 1: CAATCTGAATTCCGGTCTCCC
# DNA 2: TGGTGGCTACGACGGGATT
# B13: AUAAUAA (DNA:RNA)
# RNA: B1 RNA with C25A, G26U, U28A, G31A
# DNA 1: CAATCTGAATTCCGGTCTCCC
# DNA 2: TGGTGGCTACGACGGGATT
# B14: UCACCUA (DNA:RNA)
# RNA: B3 RNA with A25U, A26C, U27A, G28C, A29C, C31A
# DNA 1: CAATCTGAATTCCGGTCTCCC
# DNA 2: TGGTGGCTACGACGGGATT
# B15: ACAGCAU (DNA:RNA)
# RNA: B3 RNA with A26C, U27A, A29C, U30A, C31U
# DNA 1: CAATCTGAATTCCGGTCTCCC
# DNA 2: TGGTGGCTACGACGGGATT
# B16: GCCAAGU (DNA:RNA)
# RNA: B3 RNA with A25G, A26C, U27C, G28A, U30G, C31U
# DNA 1: CAATCTGAATTCCGGTCTCCC
# DNA 2: TGGTGGCTACGACGGGATT
# B17: UUUACCC (DNA:RNA)
# RNA: B3 RNA with A25U, A26U, G28A, A29C, U30C
# DNA 1: CAATCTGAATTCCGGTCTCCC
# DNA 2: TGGTGGCTACGACGGGATT
# B18: CUUGCCA (DNA:RNA)
# RNA: B3 RNA with A25C, A26U, A29C, U30C, C31A
# DNA 1: CAATCTGAATTCCGGTCTCCC
# DNA 2: TGGTGGCTACGACGGGATT
# B19: GAACGGU (DNA:RNA)
# RNA: B3 RNA with A25G, U27A, G28C, A29G, U30G, C31U
# DNA 1: CAATCTGAATTCCGGTCTCCC
# DNA 2: TGGTGGCTACGACGGGATT
# B20: AAGUAGU (DNA:RNA)
# RNA: B3 RNA with U27G, G28U, U30G, C31U
# DNA 1: CAATCTGAATTCCGGTCTCCC
# DNA 2: TGGTGGCTACGACGGGATT
# Biological target: T1, RBFOX1 RRM RbFoxmut (Fox-RRM*)
# Test: EMSA; HiTS-Eq, 1 nM pool, 10 min; buffer printed only for the single-RNA assays: 10 mM Tris pH 7.5, 150 mM NaCl, 3.4 mM EDTA, 0.001% NP-40, 30 C
# Details: tags: His6 N-terminal (pET28a); label: 5' 32P
# Summary of the method: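 Purified RbFox RRM, wild type or mutant, was incubated for 10 min in 50 µL with 1 nM of a 5′-radiolabelled RNA pool carrying 7 randomized nucleotides, whose flanks were annealed to DNA oligonucleotides, over a series of increasing protein concentrations. Unbound RNA was resolved on 8% native PAGE, cut out, reverse-transcribed, barcoded by PCR and sequenced on an Illumina HiSeq 2500. Relative association constants were derived from changes in read counts for each RNA species versus the control reaction and normalised to the cognate motif.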
row,Binder,binding signal
1,B1,0.0923 KA relative to UGCAUGU
2,B2,0.234 KA relative to UGCAUGU
3,B3,0.0587 KA relative to UGCAUGU
4,B4,0.0625 KA relative to UGCAUGU
5,B5,0.143 KA relative to UGCAUGU
6,B6,0.0855 KA relative to UGCAUGU
7,B7,0.0824 KA relative to UGCAUGU
8,B8,0.117 KA relative to UGCAUGU
9,B9,0.138 KA relative to UGCAUGU
10,B10,0.0751 KA relative to UGCAUGU
11,B11,0.156 KA relative to UGCAUGU
12,B12,0.07 KA relative to UGCAUGU
13,B13,0.124 KA relative to UGCAUGU
14,B14,0.105 KA relative to UGCAUGU
15,B15,0.101 KA relative to UGCAUGU
16,B16,0.0855 KA relative to UGCAUGU
17,B17,0.0555 KA relative to UGCAUGU
18,B18,0.0976 KA relative to UGCAUGU
19,B19,0.199 KA relative to UGCAUGU
20,B20,0.136 KA relative to UGCAUGU
